Data reported in PubChem BioAssay AID1645882 (National Center for Advancing Translational Sciences (NCATS), 2021).
In all, about 16,000 compounds went through this assay and about 120 (0.75%) were called active. Roughly 4% stayed inconclusive and do not appear here. Calls come from the whole dose curve; as a rule, active = well fitted inhibition curve with a large enough effect; inconclusive = small, poorly fitted or top-dose-only effect; inactive = no such curve, though single readings can be large or run the other way. This is one part of the list.

biological target: Rap guanine nucleotide exchange factor 3 (Homo sapiens) (UniProt O95398); assay: Validation qHTS for antagonist of cAMP-regulated guanine nucleotide exchange factor 3 (EPAC1); settings: EPAC1 Rap1B-BODIPY-GDP exchange, fluorescence; series mostly up to 150 µM; activity change, negative = inhibition: at the top concentration;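 note: plate controls were DMSO for no effect and ATA control for full effect; nearly all actives have a fitted effect of over 75% in size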
Method in brief: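 EPAC1 (100 nM) mixed with 250 nM RAP1B-BODIPY-GDP and 50 uM GDP; compounds in concentration series, 5 min at room temperature. Fluorescence (ex 480/em 540 nm) read every 5 min for 30 min; normalized to ATA control and DMSO.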

Chain of UniProt O95398 (O95398 whole entry, looked up): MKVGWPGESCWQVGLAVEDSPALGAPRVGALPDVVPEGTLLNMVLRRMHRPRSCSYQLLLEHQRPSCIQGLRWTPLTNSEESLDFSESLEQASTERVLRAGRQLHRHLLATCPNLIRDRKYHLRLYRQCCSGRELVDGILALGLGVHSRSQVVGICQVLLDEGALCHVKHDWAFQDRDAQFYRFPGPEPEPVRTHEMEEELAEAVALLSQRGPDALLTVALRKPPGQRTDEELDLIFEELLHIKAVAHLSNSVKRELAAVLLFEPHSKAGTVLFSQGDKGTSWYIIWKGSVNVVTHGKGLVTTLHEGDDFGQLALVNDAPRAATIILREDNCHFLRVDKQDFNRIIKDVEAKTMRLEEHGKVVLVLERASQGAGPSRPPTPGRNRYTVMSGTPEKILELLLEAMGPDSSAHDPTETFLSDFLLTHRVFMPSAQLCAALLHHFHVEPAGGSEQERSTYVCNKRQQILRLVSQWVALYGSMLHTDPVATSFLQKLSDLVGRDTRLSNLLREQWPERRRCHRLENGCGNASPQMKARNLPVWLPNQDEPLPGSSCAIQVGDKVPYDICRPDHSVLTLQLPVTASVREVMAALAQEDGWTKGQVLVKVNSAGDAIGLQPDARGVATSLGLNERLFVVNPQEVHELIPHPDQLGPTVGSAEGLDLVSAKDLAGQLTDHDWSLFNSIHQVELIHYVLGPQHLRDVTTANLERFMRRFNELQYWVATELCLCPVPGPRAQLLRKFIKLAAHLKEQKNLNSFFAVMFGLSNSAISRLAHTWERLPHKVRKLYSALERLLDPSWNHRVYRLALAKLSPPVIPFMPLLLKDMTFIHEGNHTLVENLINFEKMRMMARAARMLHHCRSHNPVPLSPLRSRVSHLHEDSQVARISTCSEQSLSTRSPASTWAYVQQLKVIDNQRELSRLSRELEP

SMILES | activity change, negative = inhibition
O=C1Nc2ccc(Cl)cc2C(c2ccccc2)=NC1O (stereo unspecified) | inactive
COc1ccc2c(c1)[C@@]13CCCCC1[C@@H](C2)N(C)CC3 (stereo partly specified) | inactive: -1.88%
CC(N)c1cccc(Cl)c1Cl (stereo unspecified) | inactive: -5.25% [at 75.8 µM]
C=CCN1CCC2(C)c3cc(O)ccc3CC1[C@@H]2C (stereo partly specified) | inactive: 24.7%
CC(C)(O)[C@@H]1C2OC(=O)[C@@H]1[C@]1(O)C[C@H]3O[C@]34C(=O)O[C@H]2[C@]14C | inactive: 14.6%
Cc1noc(C)c1C(=O)N1CCC[C@@]2(CCN(CC(C)C)C2)C1 | inactive: 29.2%
NC(=NCc1ccc(Cl)cc1)SCCCc1cnc[nH]1 | inactive: 2.99%
c1csc(CN2CC3(CCNCC3)C2)n1 | inactive: 23.8%
COc1ccc2c3c1O[C@H]1C(=O)CC[C@H]4[C@@H](C2)N(C)CC[C@]314 | inactive: 6.64%
C=C[C@H]1CN2CC[C@H]1C[C@H]2c1[nH]c2ccccc2c1CCO | inactive: -4.7%
C#CCN(C)[C@H](C)Cc1ccccc1 | inactive
O=C(Nc1ccc(Br)cc1)c1cc(Br)cc(Br)c1O | inactive: 24.3%
COc1cc(C[C@H](C)N)c(OC)cc1C | inactive: 28.4% [at 320 µM]
c1ccc(CCN2CCCCC2)cc1 | inactive: 22.4%
NCCc1ccccc1 | inactive: 15.9%
C[C@@H]1O[C@@H](O[C@@H]2C=C3CC[C@@H]4[C@H](CC[C@]5(C)[C@@H](c6ccc(=O)oc6)CC[C@]45O)[C@@]3(C)CC2)[C@H](O)[C@H](O)[C@H]1O | inactive: 15.2% [at 75.8 µM]
NC(Cc1ccc(N(CCCl)CCCl)cc1)C(=O)O (stereo unspecified) | inactive
C/C=C1/CN2CC[C@]34C(=C(C=O)[C@H]1C[C@@H]23)Nc1ccccc14 | inactive: 9.85%
CC1(C)C(C(Cl)Cl)C2(Cl)C(Cl)C(Cl)C1(Cl)C2(Cl)Cl (stereo unspecified) | inactive: 11.7%
CCN(CC)CCOC(=O)C(O)(c1ccccc1)c1ccccc1 | inactive: 22.8%
N[C@H](CCP(=O)(O)O)C(=O)O | inactive
CC(C)(C)OC(=O)c1ncn2c1[C@@H]1CCCN1C(=O)c1c(Br)cccc1-2 | inactive: -4.47%
OC(c1ccccc1)(c1ccccc1)C1CN2CCC1CC2 (stereo unspecified) | inactive: 20.2%
C=C1C2C[C@]3(C4CC5[C@@]6(C)CC[C@H](O)[C@@]5(C3CC2=O)C4[N+]([O-])(CC)C6)[C@@H]1O (stereo partly specified) | inactive: 2.39%
COc1ccc2[nH]c3c(c2c1)CCNC3C (stereo unspecified) | inactive: -1.64%
COc1ccc(C(CN(C)C)C2(O)CCCCC2)cc1 (stereo unspecified) | inactive

SMILES | activity change, negative = inhibition
CCCSc1cc(OC)c(CCN)cc1OC | inactive: 27.2% [at 320 µM]
CN1CC[C@@]2(CCCN(C(=O)c3csnn3)C2)C1 | inactive: 11.4%
CCN(CCCl)Cc1ccccc1Br | inactive: -4.09% [at 75.8 µM]
C[N+]1(C)[C@@H]2CC[C@H]1CC(OC(=O)c1c[nH]c3ccccc13)C2 (stereo partly specified) | inactive: -1.58%
Cc1o[nH]c(=O)c1CC(N)C(=O)O (stereo unspecified) | inactive: 0.255% [at 75.8 µM]
CC1(C)C(=O)[C@@H]2OC2[C@@]2(C)C1CC(O)[C@]1(C)C2CC[C@@]2(C)C(c3ccoc3)OC(=O)C3OC312 (stereo partly specified) | inactive: 7.42%
CC1=C(O)C(=O)[C@H]2O[C@@H]2C1=O | inactive: 14.5%
O=C(c1csnn1)N1CCC[C@@]2(CCN(Cc3ccncc3)C2)C1 | inactive: 22.1%
CCNCC(O)c1cccc(O)c1 (stereo unspecified) | inactive: 16.2% [at 75.8 µM]
O=C(CS(=O)C(c1ccccc1)c1ccccc1)NO (stereo unspecified) | inactive: -9.05%
CN1CCc2cc3c(cc2C1O)OCO3 (stereo unspecified) | inactive: 6.56%
CP(=O)(O)CCCN | inactive
COc1cc2c(cc1O)-c1c(O)c(OC)cc3c1[C@H](C2)N(C)CC3 | inactive: -6.09%
CC(n1cc(C[C@H](N)C(=O)O)c2ccccc21)n1cc(C[C@H](N)C(=O)O)c2ccccc21 | inactive: 5.04%
COC1=CC23CCCN2CCc2cc4c(cc2C3C1O)OCO4 (stereo unspecified) | inactive: -8.2%
O=C(C[C@@H]1NCCC[C@H]1O)Cn1cnc2cc(Br)c(Cl)cc2c1=O | inactive: 22.7%
NP(N)(=O)NC(=O)c1ccc(F)cc1 | inactive: 15.2%
CC[n+]1c(-c2ccccc2)c2cc(N)ccc2c2ccc(N)cc21 | inactive
N[C@H](CP(=O)(O)O)C(=O)O | inactive: 5.73%
C[C@]12CC[C@H]3[C@@H](C[C@H](F)C4=CC(=O)CC[C@@]43C)[C@@H]1CC[C@@H]2O | inactive: 14.7%
Oc1ccc2c3c1O[C@H]1c4oc5ccccc5c4C[C@@]4(O)C(C2)N(CC2CC2)CCC314 (stereo partly specified) | inactive: 12.8% [at 75.8 µM]
CCCCC1C(=O)NC(=O)N(C2CCCCC2)C1=O (stereo unspecified) | inactive: 32.4%
COc1ccc(C(=O)O)cc1OC | inactive: 6.46%
COc1ccc2[nH]cc(C3=CCNCC3)c2c1 | inactive
NCC(=O)c1ccccc1 | inactive: 21.2%
Clc1ccc(C(Cn2ccnc2)OCc2csc3c(Cl)cccc23)c(Cl)c1 (stereo unspecified) | inactive: 3.84% [at 75.8 µM]

SMILES | activity change, negative = inhibition
CCOC(=O)c1ncn2c1CN(C)C(=O)c1c(I)cccc1-2 | inactive: 57.8%
O=C(Nc1ccccc1)N1CC[C@@]2(CCCN(C(=O)Oc3ccccc3)C2)C1 | inactive: 4.63%
O=C(O)Cc1ccccc1 | inactive: 21.4%
ClC(Cl)(Cl)Cl | inactive: 26%
Clc1cccc(SC2CCNCC2)n1 | inactive
CCNC(=O)[C@@H]1O[C@@H](n2cnc3c(N)ncnc32)[C@H](O)[C@H]1O | inactive: 11.7%
O=C(O)[C@H]1[C@H]2CN[C@H](C(=O)O)[C@H]21 | inactive
COc1ccc(C(=O)c2c(C)n(CCN3CCOCC3)c3ccccc23)cc1 | inactive: 5.32%
CNC(=O)OCC[N+](C)(C)C | inactive: -1.8%
CN1C(=O)[C@@H](NC(=O)c2cc3ccccc3[nH]2)N=C(c2ccccc2)c2ccccc21 | inactive: -10.7%
c1cc2c(c(N3CCNCC3)c1)OCCO2 | inactive: 22.4%
CCS(=O)(=O)C(C)(C)S(=O)(=O)CC | inactive: 9.32%
CC[C@H]1C2CC3[C@@H]4N(C)c5ccccc5[C@]45C[C@@H](C2[C@H]5O)N3[C@@H]1O (stereo partly specified) | inactive: 9.98%
c1ccc(CCCN2CCN(CCOC(c3ccccc3)c3ccccc3)CC2)cc1 | inactive
C[C@@H](C(=O)OC1C[C@H]2CC[C@@H](C1)N2C)c1ccc(Br)cc1 (stereo partly specified) | inactive: -1.09%
CN1CCCC2(CCN(C(=O)Oc3ccccc3)CC2)C1 | inactive: 11%
CN(C)CCc1c[nH]c2cccc(OP(=O)(O)O)c12 | inactive: 26.3% [at 320 µM]
O=C(O)/C=C\C(=O)O | inactive: 26.9%
c1ccc(N2CC3(CCNCC3)C2)nc1 | inactive: 14.5%
CCS(=O)CCSP(=O)(OC)OC (stereo unspecified) | inactive: 9.03%
CCCn1c(C)c(C(=O)c2ccc3ccccc3c2)c2ccccc21 | inactive: 0.954% [at 75.8 µM]
C[C@]12CCC(=O)C=C1CC[C@@H]1[C@@H]2CC[C@@]2(C)[C@H]1CC[C@]2(C)O | inactive
CC(C)NCC(O)c1ccc(N)c(C#N)c1 (stereo unspecified) | inactive
C[C@H]1CC[C@@H]2N(C1)C[C@H]1[C@@H]3C[C@H]4[C@@H](CC(=O)[C@H]5C[C@@H](O)CC[C@@]54C)[C@@H]3CC[C@H]1[C@]2(C)O | inactive: 9.57%
